Laboratory results taken from PubChem BioAssay AID1645887 (National Center for Advancing Translational Sciences (NCATS), 2021).
“And” between values parts separate entries of the source, which are not always exact repeats. Equal entries are not always repeated. Hit rate of the full screen: of about 16,000 compounds, about 40 (0.2%) were called active. Another 1% or so got no clear call; they are omitted. Calls come from the whole dose curve; as a rule, active = well fitted activation curve with a large enough effect; inconclusive = small, poorly fitted or top-dose-only effect, or another doubt; inactive = no such curve, though single readings can be large or run the other way. Some of the results follow. Positions of bridges follow the written chain, without caps; N, C: chain ends. Non-standard residues stand in square brackets, D forms with d. Residues, ends and D or L forms follow the SMILES beside them. *: point of attachment. X2 = CC[C@@H](C)[C@@H](N)C1=N[C@H](C(=O)*)CS1; d(aIle) = CC[C@H](C)[C@@H](N)C(=O)O; dOrn = NCCC[C@@H](N)C(=O)O; X4 = CC[C@H](C)CCCCC(=O)*; Dab = NCC[C@H](N)C(=O)O

Biological target: Rap guanine nucleotide exchange factor 4 (Homo sapiens) (UniProt Q8WZA2)
Experiment: Validation qHTS for agonist of cAMP-regulated guanine nucleotide exchange factor 4 (EPAC2);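 note: exchange makes BODIPY-GDP fluorescence drop when released from Rap1B; series mostly up to about 150 µM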
Details: EPAC2 Rap1B BODIPY-GDP exchange, fluorescence; activation: stronger effect = higher value
Text: Principle Investigator: Xiaodong Cheng Ph.D.
The University of Texas Medical Branch, […], TX
In multi-cellular eukaryotic organisms, the effects of cAMP are transduced by two ubiquitously-expressed intracellular cAMP receptors, the classic protein kinase A/cAMP-dependent protein kinase (PKA/cAPK) and the more recently discovered exchange protein directly activated by cAMP/cAMP-regulated guanine nucleotide exchange factor (EPAC/cAMP-GEF). Both PKA and EPAC are ubiquitously expressed in all tissues, and an increase in intracellular cAMP levels will lead to the activation of both PKA and EPAC. Therefore, careful dissections of the individual role and relative contribution of EPAC and PKA within the overall cAMP signaling in various model systems are critical for further elucidating the mechanism of cAMP signaling. To date no EPAC-specific antagonists and agonist, as well as isoform-specific agonists have been reported, and developing EPAC-specific pharmacological probes to determine the physiological functions that EPAC play in the overall cAMP-mediated signaling remains a major challenge within the research field. Furthermore, identified regulators of EPAC may lead to new mechanism-based therapeutic strategies specifically targeting the EPAC / cAMP-signaling components as EPAC has been implicated to play important roles in major human pathological conditions such as diabetes, heart disease, and cancer.
This qHTS will be used to screen the Molecular Libraries Small Molecule Repository (MLSMR) as a concentration-titration series using the NCGC unique quantitative screening (qHTS) platform to find activators for EPAC1. In addition, this assay will also be used as a counterscreen for the EPAC2 qHTS. This fluorescent based assay is developed and validated for EPAC1 that measures exchange using EPAC effector Rap1 complex with BODIPY-GDP, a GDP analog with a tethered fluorophores. Activators are identified by monitoring the change in fluorescence signal as the exchanged free BODIPY-GDP has a reduced fluorescence compared to Rap1-bound BODIPY-GDP. Increase in signal (activation) is the desired outcome for the EPAC1 agonist while no activity in this assay is desired for the EPAC2 agonist counterscreen.
[1] de Rooij, J., Zwartkruis, F. J., Verheijen, M. H., Cool, R. H., Nijman, S. M., Wittinghofer, A., and Bos, J.L. (1998) Nature 396, 474-477.
Briefly, three uL of reagents (100 nM EPAC2, 250 nM RAP1B-BODIPY-GDP, 50 uM GDP) were dispensed into a 1536-well Greiner black solid-bottom medium binding assay plate. Controls and test compounds (23 nL) were transferred to the plate via a Kalypsys pin tool equipped with a 1536-pin array. The plates were centrifuged at 1,000 rpm for 15 seconds followed by 5 minute incubation at room temperature. The assay plates were read at 5 minute intervals for 30 minutes in the ViewLux plate reader using 480nm excitation and 540nm emission filters. The results were normalized to the agonist positive control of 6.5 mM cAMP.
% is set by controls: 0 for no effect and ±100 for the full control effect.

Chain of UniProt Q8WZA2 (Q8WZA2 whole entry, looked up): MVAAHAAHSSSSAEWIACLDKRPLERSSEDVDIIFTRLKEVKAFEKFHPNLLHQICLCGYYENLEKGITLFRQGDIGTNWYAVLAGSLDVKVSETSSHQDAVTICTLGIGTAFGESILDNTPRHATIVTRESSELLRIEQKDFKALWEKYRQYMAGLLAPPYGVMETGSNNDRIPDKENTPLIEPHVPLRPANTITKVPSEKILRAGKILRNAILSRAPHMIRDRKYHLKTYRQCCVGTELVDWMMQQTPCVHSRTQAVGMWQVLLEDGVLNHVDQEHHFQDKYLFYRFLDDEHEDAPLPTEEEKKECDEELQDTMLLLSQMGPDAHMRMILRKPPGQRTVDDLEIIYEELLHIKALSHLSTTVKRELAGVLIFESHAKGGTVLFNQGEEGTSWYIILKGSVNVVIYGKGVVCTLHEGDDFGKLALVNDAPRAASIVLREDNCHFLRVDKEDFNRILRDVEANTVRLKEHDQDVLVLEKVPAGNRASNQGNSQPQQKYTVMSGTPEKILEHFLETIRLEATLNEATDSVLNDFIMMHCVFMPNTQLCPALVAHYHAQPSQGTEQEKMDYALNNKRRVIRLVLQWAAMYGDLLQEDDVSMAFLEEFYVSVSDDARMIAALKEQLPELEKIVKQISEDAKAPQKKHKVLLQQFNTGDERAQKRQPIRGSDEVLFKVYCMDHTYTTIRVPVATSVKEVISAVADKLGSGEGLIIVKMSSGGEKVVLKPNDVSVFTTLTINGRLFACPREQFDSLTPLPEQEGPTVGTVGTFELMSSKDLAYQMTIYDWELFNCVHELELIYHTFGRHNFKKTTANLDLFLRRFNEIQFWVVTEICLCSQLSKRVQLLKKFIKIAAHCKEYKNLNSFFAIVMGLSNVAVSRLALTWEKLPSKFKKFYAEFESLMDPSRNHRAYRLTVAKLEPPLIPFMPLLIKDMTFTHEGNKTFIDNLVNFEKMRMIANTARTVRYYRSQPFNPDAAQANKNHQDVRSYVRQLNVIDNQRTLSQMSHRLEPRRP

activation, inactive:
Cc1occc1C(=O)Nc1cccc(-c2nc(CNC(=O)c3ccc4ccccc4n3)c(C)o2)c1 4.43%
C1=Cc2ccccc2/C1=C/c1ccc(/C=C2\C=Cc3ccccc32)cc1 -0.535%
Cc1cc(C)n(Cc2cccc(C(=O)NCC3Cc4cccc(-c5ncccn5)c4O3)c2)n1 (stereo unspecified) 4.28%
COC(=O)N1CCC2(CCCN(c3ccncc3)C2)CC1 -7.73%
CCCCCCCN(CC)CCCC(O)c1ccc(NS(C)(=O)=O)cc1 (stereo unspecified) -10.7%
CC1C(=O)CCC2[C@]1(C)CCC1[C@]2(C)CC[C@@]2(C)C3CC(C)(C)CC[C@]3(C)CC[C@@]12C (stereo partly specified) -15.6%
COCCn1c(=O)c(-c2ccc(OC)cc2)nc2cnc(OC)nc21 -18.5%
OC(C[n+]1c(Cl)ccc2ccccc21)c1ccccc1 (stereo unspecified) -17.6%
N#Cc1ccccc1-c1ccc2ncnc(NCCN3CCOCC3)c2c1 -0.981%
S=C(S)O[C@@H]1C[C@@H]2C[C@H]1[C@@H]1CCC[C@H]21 -28.5%
COc1ccc(-c2cc(=O)c3c(O)cc(O[C@@H]4O[C@H](CO[C@@H]5O[C@@H](C)[C@H](O)[C@@H](O)[C@H]5O)[C@@H](O)[C@H](O)[C@H]4O)cc3o2)cc1O -13.8%
COc1ccc(/C=C2\NC(=O)[C@@H]3Cc4ccccc4CN3C2=O)cc1 -9.5%
O=C(c1ccncc1)N1CCC2(CCN(Cc3cc(C(F)(F)F)cc(C(F)(F)F)c3)CC2)CC1 -37.6%
C[C@@H]1Oc2ccccc2C=C1/C=C/C(=O)O -15.8%
CC[N+](CC)(CC)CCOC(=O)C(C1CCCC1)C1CCCC1 -2.82%
CC[N+]1(CC(=O)c2ccc(I)cc2)CCCCC1 -20.6%
COCCn1c(=O)c(-c2cccc(F)c2)nc2cncnc21 -0.554%
CN1CCC(=O)N([C@H](CSc2ccccc2)Cc2ccccc2)CC1 -25.7%
Cc1nc2ccc(C(=O)N3CCOc4ccc(CN5CCOCC5)cc4C3)cc2nc1C -7.65%
COc1ccccc1-c1cc2c(c(OC)c1)OCCN(CCC(C)c1ccc(C)o1)C2 (stereo unspecified) -6.08%
COCC(=O)Nc1cc(C(=O)N2CCN(C3CCCC3)C(=O)C2)c2c(c1)nc(-c1ccncc1)n2C -6.61%
O=C(Oc1ccccc1)N1CCC[C@@]2(CCN(c3ccccc3)C2)C1 -5.85%
CC(C)CC(NC(=O)CN)C(=O)NC(Cc1ccccc1)C(=O)O (stereo not drawn) (H-Gly-Leu-Phe-OH; configuration not given here) -3.33%
c1ccc(-c2cccc(N3CCCC4(CCNCC4)C3)c2)cc1 -4.09%
O=C(c1ccco1)N1CCC2(CCCN(c3ncccn3)C2)CC1 -3.83%
O/N=C(/C[n+]1ccsc1)c1ccc(I)cc1 -3.5%
Cc1cccc(CNc2ncncc2-c2ccc3c(c2)OCO3)c1 -13.5%
COc1cc(O)cc(/C=C/c2ccccc2)c1 2.01%
CC(C)CCCC(C)CCCC(C)CCCCC(C)CCCC(C)CCCC(C)C (stereo unspecified) -15.7%
COC(=O)c1c(OC)cc2c(c1C)Oc1c(Cl)c(OC(C)=O)c(Cl)c(C)c1C(=O)O2 -19.9%
N#Cc1cc([N+](=O)[O-])c2sc(C(N)=O)[n+]([O-])c2c1 -8.48%
N#Cc1cc2[nH]c(=O)c(=O)[nH]c2cc1[N+](=O)[O-] -7.04%
CC(=O)/C=C/c1ccc2c(c1)S(=O)(=O)N(C1CCCC1)[C@H]2CC(C)=O -27.2%
CO[C@H]1[C@H](NC(=O)c2cccs2)c2ccccc2C12CCN(Cc1cccn1-c1cccnc1)CC2 1.71%
O=C(c1cccnc1)C1CCCN(Cc2ccc3c(c2)CN(C(=O)c2cccc(Cl)c2)CCO3)C1 (stereo unspecified) -21.8%
CC1CS(=O)(=O)CCN1/N=C/c1ccc([N+](=O)[O-])o1 (stereo unspecified) -4.41%
CC1CC[C@@]2(C(=O)O)CC[C@]3(C)C(=CCC4[C@@]5(C)CCC(O)C(C)(C)C5CC[C@@]43C)C2C1C (stereo partly specified) -25.2%
CC(=O)NC(CC(=O)O)C(=O)O (stereo unspecified) -16.6%
CCCCN1C[C@H](Cc2ccccc2)[C@@H](CC(=O)Nc2ccccc2)C1=O -22.3%
CN1CCCC2(CCN(S(=O)(=O)c3ccccc3)CC2)C1 0.0223%
CCCCN1CC[C@H]2C=CC[C@@H](C(=O)Nc3ccc(OC)cc3)[C@H]2C1=O -21%
COCC(=O)N1CCC2(CCCN(c3ccncc3)C2)CC1 -9.43%
COc1ccc(C(=O)c2ccc(C)cc2)c(O)c1 -17.6%
CC[C@@H](C)[C@@H](N)C1=N[C@H](C(=O)N[C@@H](CC(C)C)C(=O)N[C@@H](CCC(=O)O)C(=O)N[C@@H](C(=O)N[C@@H]2CCCCNC(=O)[C@@H](CC(N)=O)NC(=O)[C@@H](CC(=O)O)NC(=O)[C@@H](Cc3cnc[nH]3)NC(=O)[C@@H](Cc3ccccc3)NC(=O)[C@@H]([C@H](C)CC)NC(=O)[C@@H](CCCN)NC2=O)[C@@H](C)CC)CS1 (X2-LE[d(aIle)][dK][dOrn][dI][dF][dH][dD][dN]; lactam 4-C) -3.02% and -28.2%
COc1cccc(CN2C(=O)NC(C)(C3CCN(Cc4cc(F)cc(F)c4)CC3)C2=O)c1OC (stereo unspecified) -21.7%
Cc1c(C(=O)NCC2COCCO2)cnn1-c1nccc(-c2cccs2)n1 (stereo unspecified) -14.4%
NC(=O)NC(=O)Cc1ccccc1 15.1%
COCC1CCCN(Cc2ccc3c(c2)CN(C(=O)c2ccc(-c4ccc(C)o4)cc2)CCO3)C1 (stereo unspecified) -11.2%
FC(F)(F)c1ccccc1-c1cc(NCCN2CCOCC2)ncn1 -9.23%
CC[C@H](C)CCCCC(=O)N[C@@H](CCN)C(=O)N[C@H](C(=O)N[C@@H](CCN)C(=O)N[C@H]1CCNC(=O)[C@H]([C@@H](C)O)NC(=O)[C@H](CCN)NC(=O)[C@H](CCN)NC(=O)[C@H](CC(C)C)NC(=O)[C@@H](CC(C)C)NC(=O)[C@H](CCN)NC1=O)[C@@H](C)O (X4-[Dab]T[Dab][Dab][Dab][dL]L[Dab][Dab]T; lactam 4-C) 0.683%
COc1cc(-c2cc(C)c3c(OC)ccc(OC)c3n2)cc2c1OCCN(C(=O)Cn1nc(C)cc1C)C2 -9.59%
C[C@]12C=CC(=O)C=C1[C@@H](F)C[C@@H]1[C@@H]2[C@@H](O)C[C@@]2(C)[C@H]1CC[C@]2(O)C(=O)CO 2.95% and -20.9%
CC1CC2C3CCC4=CC(=O)C=C[C@@]4(C)[C@]3(F)C(O)C[C@]2(C)[C@]1(O)C(=O)CO (stereo partly specified) -3.09% and 6.85%
COCC(=O)N1CCC[C@@]2(CCN(Cc3cc(C(F)(F)F)cc(C(F)(F)F)c3)C2)C1 -30%
Cc1c(N)nc([C@H](CC(N)=O)NC[C@H](N)C(N)=O)nc1C(=O)N[C@H](C(=O)N[C@H](C)[C@@H](O)[C@H](C)C(=O)N[C@H](C(=O)NCCc1nc(-c2nc(C(=O)NCCCCN=C(N)N)cs2)cs1)[C@@H](C)O)[C@@H](O[C@@H]1O[C@@H](CO)[C@@H](O)[C@H](O)[C@@H]1O[C@H]1O[C@H](CO)[C@@H](O)[C@H](OC(N)=O)[C@@H]1O)c1cnc[nH]1 8.79% and -2.56%
O=C1CC2(CCCC2)CC(=O)N1CCNC[C@H]1COc2ccccc2O1 1.04%
CN1[C@@H](CC(=O)c2ccccc2)CCC[C@H]1C[C@H](O)c1ccccc1 4.81% and 6.26% and -27.2%
O=C(NCC1Cc2cc(F)cc(-c3cnccn3)c2O1)c1cccc(Cl)c1 (stereo unspecified) -1.77%
Cn1cccc1C(=O)N1CCC2(CCCN(c3ccccn3)C2)CC1 -10.5%
c1ccc2[nH]c(-c3cscn3)nc2c1 8.67% and -36.9%
N#Cc1cccc(-c2nc(Nc3ccccc3)c3ccccc3n2)c1 8.9%
OC[C@@H](O)[C@@H](O[C@@H]1O[C@H](CO)[C@H](O)[C@H](O)[C@H]1O)[C@H](O)[C@@H](O)CO 4.55%
COc1ccc(-c2ccc(C(=O)N3CCc4c(cnc(C)c4CNS(=O)(=O)N(C)C)C3)o2)cc1 8.58%
COc1ccc2[nH]cc(CCNc3ncnc4ccc(-c5ccc(C(=O)N(C)C)cc5)cc34)c2c1 -29.2%
O=C1CCC[C@@H]2[C@H](Cc3ccccc3)[C@@H](O)C[C@@H]3CCN1[C@@H]32 -12.2%
O=S(=O)(c1ccccc1)N1CCC2(CC1)CN(Cc1ccccc1)C2 -1.14%
CC(=O)C(C)=O -20.8%
C[C@@H](CN=[N+]=[N-])CN1CC[C@H](C(C)(C)C)CCC1=O -36.2%
CC1(C)OC2CC3C4CCC5=CC(=O)CCC5(C)C4(F)C(O)CC3(C)[C@]2(C(=O)CCl)O1 (stereo partly specified) -19.2%
OC[C@H]1O[C@@H](n2cnc3cncnc32)[C@H](O)[C@@H]1O -7.61% and -13.4%
CC(C)=CCC/C(C)=C/CC/C(C)=C/CC/C(C)=C/CC1=C(C)C(=O)c2ccccc2C1=O -45% and -13.8%
